# Assay results: the supplement of paper PMC8728848
# The other results are listed elsewhere or left out.
# Experiments:
# Assay in all cases: glycan array binding signal (z-score within array); higher = stronger binding
# Settings in all cases: glycan notation: IUPAC condensed, linker removed
# [1] = biological target: Neu5Ac(a2-3)Gal(b1-3)GalNAc
# Procedure, shortened: (§1)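 Arrays were curated from the Consortium for Functional Glycomics database, 3228 in total, and kept only where the protein sequence was available. Binding is expressed as a within-array Z-score. This score was averaged across arrays of the same protein sequence at different concentrations or buffers and across linkers, and negative values can be read as non-binding.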
# [2] = biological target: Neu5Ac(a2-3)Gal(b1-3)GalNAc(b1-3)Gal(a1-4)Gal(b1-4)Glc
# Procedure, shortened: as §1
# [3] = biological target: Neu5Ac(a2-3)Gal(b1-3)GalNAc(b1-4)Gal(b1-4)Glc
# Procedure, shortened: as §1
# [4] = biological target: Neu5Ac(a2-3)Gal(b1-3)GalNAc(b1-4)[Neu5Ac(a2-3)]Gal(b1-4)Glc
# Procedure, shortened: as §1
# [5] = biological target: Neu5Ac(a2-3)Gal(b1-3)GalNAc(b1-4)[Neu5Ac(a2-8)Neu5Ac(a2-3)]Gal(b1-4)Glc
# Procedure, shortened: as §1
# [6] = biological target: Neu5Ac(a2-3)Gal(b1-3)GalNAc6S
# Procedure, shortened: as §1
# [7] = biological target: Neu5Ac(a2-3)Gal(b1-3)GlcNAc
# Procedure, shortened: as §1
# [8] = biological target: Neu5Ac(a2-3)Gal(b1-3)GlcNAc(b1-2)Man
# Procedure, shortened: as §1
# [9] = biological target: Neu5Ac(a2-3)Gal(b1-3)GlcNAc(b1-2)Man(a1-3)[GlcNAc(b1-4)][Neu5Ac(a2-3)Gal(b1-3)GlcNAc(b1-2)Man(a1-6)]Man(b1-4)GlcNAc(b1-4)GlcNAc
# Procedure, shortened: as §1
# [10] = biological target: Neu5Ac(a2-3)Gal(b1-3)GlcNAc(b1-2)Man(a1-3)[Neu5Ac(a2-3)Gal(b1-3)GlcNAc(b1-2)Man(a1-6)]Man(b1-4)GlcNAc(b1-4)GlcNAc
# Procedure, shortened: as §1
# [11] = biological target: Neu5Ac(a2-3)Gal(b1-3)GlcNAc(b1-2)[Neu5Ac(a2-3)Gal(b1-3)GlcNAc(b1-4)]Man(a1-6)[Neu5Ac(a2-3)Gal(b1-3)GlcNAc(b1-2)Man(a1-3)]Man(b1-4)GlcNAc(b1-4)GlcNAc
# Procedure, shortened: as §1
# [12] = biological target: Neu5Ac(a2-3)Gal(b1-3)GlcNAc(b1-3)Gal(b1-3)GlcNAc
# Procedure, shortened: as §1
# [13] = biological target: Neu5Ac(a2-3)Gal(b1-3)GlcNAc(b1-3)Gal(b1-4)GlcNAc
# Procedure, shortened: as §1
# [14] = biological target: Neu5Ac(a2-3)Gal(b1-3)GlcNAc(b1-3)GalNAc
# Procedure, shortened: as §1
# [15] = biological target: Neu5Ac(a2-3)Gal(b1-3)GlcNAc(b1-6)GalNAc
# Procedure, shortened: as §1
# [16] = biological target: Neu5Ac(a2-3)Gal(b1-3)GlcNAc6S
# Procedure, shortened: as §1
# [17] = biological target: Neu5Ac(a2-3)Gal(b1-3)[Fuc(a1-4)]GlcNAc
# Procedure, shortened: as §1
# [18] = biological target: Neu5Ac(a2-3)Gal(b1-3)[Fuc(a1-4)]GlcNAc(b1-3)Gal(b1-3)[Fuc(a1-4)]GlcNAc
# Procedure, shortened: as §1
# [19] = biological target: Neu5Ac(a2-3)Gal(b1-3)[Fuc(a1-4)]GlcNAc(b1-3)Gal(b1-4)[Fuc(a1-3)]GlcNAc
# Procedure, shortened: as §1
# [20] = biological target: Neu5Ac(a2-3)Gal(b1-3)[GlcNAc(b1-6)]GalNAc
# Procedure, shortened: as §1
# [21] = biological target: Neu5Ac(a2-3)Gal(b1-3)[Neu5Ac(a2-6)]GalNAc
# Procedure, shortened: as §1
# [22] = biological target: Neu5Ac(a2-3)Gal(b1-3)[Neu5Ac(a2-6)]GlcNAc(b1-3)[Fuc(a1-3)[Gal(b1-4)]GlcNAc(b1-6)]Gal(b1-4)Glc
# Procedure, shortened: as §1
# [23] = biological target: Neu5Ac(a2-3)Gal(b1-3)]Neu5Ac(a2-3)Gal(b1-4)]GlcNAc
# Procedure, shortened: as §1
# Neu5Ac(a2-3)Gal(b1-4)Glc = biological target: Neu5Ac(a2-3)Gal(b1-4)Glc
# Procedure, shortened: as §1
# [24] = biological target: Neu5Ac(a2-3)Gal(b1-4)GlcNAc
# Procedure, shortened: as §1
# [25] = biological target: Neu5Ac(a2-3)Gal(b1-4)GlcNAc(b1-2)Man
# Procedure, shortened: as §1
# [26] = biological target: Neu5Ac(a2-3)Gal(b1-4)GlcNAc(b1-2)Man(a1-3)[GlcNAc(b1-4)][Neu5Ac(a2-3)Gal(b1-4)GlcNAc(b1-2)Man(a1-6)]Man(b1-4)GlcNAc(b1-4)GlcNAc
# Procedure, shortened: as §1
# [27] = biological target: Neu5Ac(a2-3)Gal(b1-4)GlcNAc(b1-2)Man(a1-3)[Neu5Ac(a2-3)Gal(b1-4)GlcNAc(b1-2)Man(a1-6)]Man(b1-4)GlcNAc(b1-4)GlcNAc
# Procedure, shortened: as §1
# [28] = biological target: Neu5Ac(a2-3)Gal(b1-4)GlcNAc(b1-2)Man(a1-3)[Neu5Ac(a2-3)Gal(b1-4)GlcNAc(b1-2)Man(a1-6)]Man(b1-4)GlcNAc(b1-4)[Fuc(a1-6)]GlcNAc
# Procedure, shortened: as §1
# [29] = biological target: Neu5Ac(a2-3)Gal(b1-4)GlcNAc(b1-2)Man(a1-3)[Neu5Ac(a2-6)Gal(b1-4)GlcNAc(b1-2)Man(a1-6)]Man(b1-4)GlcNAc(b1-4)GlcNAc
# Procedure, shortened: as §1
# [30] = biological target: Neu5Ac(a2-3)Gal(b1-4)GlcNAc(b1-2)[Neu5Ac(a2-3)Gal(b1-4)GlcNAc(b1-4)]Man(a1-3)[GlcNAc(b1-4)][Neu5Ac(a2-3)Gal(b1-4)GlcNAc(b1-2)[Neu5Ac(a2-3)Gal(b1-4)GlcNAc(b1-6)]Man(a1-6)]Man(b1-4)GlcNAc(b1-4)GlcNAc
# Procedure, shortened: as §1
# [31] = biological target: Neu5Ac(a2-3)Gal(b1-4)GlcNAc(b1-2)[Neu5Ac(a2-3)Gal(b1-4)GlcNAc(b1-4)]Man(a1-3)[GlcNAc(b1-4)][Neu5Ac(a2-3)Gal(b1-4)GlcNAc(b1-4)Man(a1-6)]Man(b1-4)GlcNAc(b1-4)GlcNAc
# Procedure, shortened: as §1
# [32] = biological target: Neu5Ac(a2-3)Gal(b1-4)GlcNAc(b1-2)[Neu5Ac(a2-3)Gal(b1-4)GlcNAc(b1-6)]Man(a1-6)[Neu5Ac(a2-3)Gal(b1-4)GlcNAc(b1-2)Man(a1-3)][GlcNAc(b1-4)]Man(b1-4)GlcNAc(b1-4)GlcNAc
# Procedure, shortened: as §1
# [33] = biological target: Neu5Ac(a2-3)Gal(b1-4)GlcNAc(b1-3)Gal
# Procedure, shortened: as §1
# [34] = biological target: Neu5Ac(a2-3)Gal(b1-4)GlcNAc(b1-3)Gal(b1-3)GlcNAc
# Procedure, shortened: as §1
# [35] = biological target: Neu5Ac(a2-3)Gal(b1-4)GlcNAc(b1-3)Gal(b1-4)GlcNAc
# Procedure, shortened: as §1
# [36] = biological target: Neu5Ac(a2-3)Gal(b1-4)GlcNAc(b1-3)Gal(b1-4)GlcNAc(b1-2)Man(a1-3)[Neu5Ac(a2-3)Gal(b1-4)GlcNAc(b1-3)Gal(b1-4)GlcNAc(b1-2)Man(a1-6)]Man(b1-4)GlcNAc(b1-4)GlcNAc
# Procedure, shortened: as §1
binder,measurement,setting,value
OGAA (protein) MVQKESQATLEERESELSSNPAASAGASLEPPAAPAPGEDNPAGAGGAAVAGAAGGARRFLCGVVEGFYGRPWVMEQRKELFRRLQKWELNTYLYAPKDDYKHRMFWREMYSVEEAEQLMTLISAAREYEIEFIYAISPGLDITFSNPKEVSTLKRKLDQVSQFGCRSFALLFADIDHNMCAADKEVFSSFAHAQVSITNEIYQYLGEPETFLFCPTEYCGTFCYPNVSQSPYLRTVGEKLLPGIEVLWTGPKVVSKEIPVESIEEVSKIIKRAPVIWDNIHANDYDQKRLFLGPYKGRSTELIPRLKGVLTNPNCEFEANYVAIHTLATWYKSNMNGVRKDVVMTDSEDSTVSIQIKLENEGSDEDIETDVLYSPQMALKLALTEWLQEFGVPHQY,glycan array binding signal (z-score),[1],-0.062
same,glycan array binding signal (z-score),[2],-0.079
same,glycan array binding signal (z-score),[3],-0.067
same,glycan array binding signal (z-score),[4],-0.083
same,glycan array binding signal (z-score),[5],-0.097
same,glycan array binding signal (z-score),[6],-0.051
same,glycan array binding signal (z-score),[7],-0.078
same,glycan array binding signal (z-score),[8],-0.107
same,glycan array binding signal (z-score),[9],-0.067
same,glycan array binding signal (z-score),[10],0.181
same,glycan array binding signal (z-score),[11],0.068
same,glycan array binding signal (z-score),[12],-0.013
same,glycan array binding signal (z-score),[13],-0.111
same,glycan array binding signal (z-score),[14],-0.094
same,glycan array binding signal (z-score),[15],-0.047
same,glycan array binding signal (z-score),[16],-0.085
same,glycan array binding signal (z-score),[17],-0.083
same,glycan array binding signal (z-score),[18],0.016
same,glycan array binding signal (z-score),[19],-0.081
same,glycan array binding signal (z-score),[20],-0.027
same,glycan array binding signal (z-score),[21],0.07
same,glycan array binding signal (z-score),[22],-0.063
same,glycan array binding signal (z-score),[23],-0.107
same,glycan array binding signal (z-score),Neu5Ac(a2-3)Gal(b1-4)Glc,-0.075
same,glycan array binding signal (z-score),[24],-0.055
same,glycan array binding signal (z-score),[25],0.083
same,glycan array binding signal (z-score),[26],-0.029
same,glycan array binding signal (z-score),[27],-0.095
same,glycan array binding signal (z-score),[28],-0.064
same,glycan array binding signal (z-score),[29],-0.118
same,glycan array binding signal (z-score),[30],-0.098
same,glycan array binding signal (z-score),[31],-0.06
same,glycan array binding signal (z-score),[32],-0.063
same,glycan array binding signal (z-score),[33],-0.09
same,glycan array binding signal (z-score),[34],-0.104
same,glycan array binding signal (z-score),[35],-0.046
same,glycan array binding signal (z-score),[36],-0.1
